Reference: PubChem BioAssay AID1671194 (National Center for Advancing Translational Sciences (NCATS), 2021)
Among all 140,000 compounds or so, about 240 (0.17%) were called active. The inconclusive results got no clear call from the source; some entries with a clear call stand among them for comparison. Calls follow the shape of the dose curve; as a rule, active = well fitted inhibition curve with a large enough effect; inconclusive = small, poorly fitted or top-dose-only effect; inactive = no such curve, though single readings can be large or run the other way. Where the call is inconclusive, the potency comes from a doubtful curve fit.

Assay: Primary qHTS assay for inhibitors of alpha-synuclein gene (SNCA) expression; also: nearly all actives have a fitted effect of over 45% in size;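 as to activity change, negative = inhibition: plate controls were DMSO cells for no effect and cell-free wells for full effect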
Details: HEK-293 SNCA-luciferase knock-in, luminescence, 24 h; activity change, negative = inhibition: at 57.2 µM (top of the series) unless noted
Potency is read from the fitted curve at half-maximal effect; tags tell the direction and shape of the fitted curve.

Row | Compound | Potency | activity change, negative = inhibition
1 | C=Cc1ccc(Cn2c(C(=O)O)c(CNCc3cccs3)c3ccc(C)cc32)cc1 | inconclusive: 22.4 µM [inhibitor, single point] | 
2 | CCOc1ccc(NC(=O)c2cc3c(-c4ccccc4F)nn(C)c3s2)cc1 | inconclusive: 15.8 µM [inhibitor, partial curve] | 
3 | O=C(CCSCc1cnn(-c2ccccc2)c1-n1cccc1)NCc1ccccc1F | inconclusive: 39.8 µM [inhibitor, single point] | 
4 | CCN(C(=O)CCC(=O)N1CCC(c2nc(C(=O)N3CCCC3)c(C)o2)CC1)c1ccccc1 | inconclusive: 28.2 µM [inhibitor, partial curve, poor fit] | 
5 | Cc1noc2c(-c3cccnc3NC3CCN(C)CC3)cc(-c3ccc(Cl)cc3)nc12 | inconclusive: 15.8 µM [inhibitor, partial curve, poor fit] | 
6 | CCCCn1c(=O)c(C(=O)N2CCN(C(=O)c3ccccc3C)CC2)nc2cccnc21 |  | inactive: 6.94%
7 | O=S(=O)(NCc1nc2cccnc2n1Cc1ccc(F)cc1)c1ccc2c(c1)CCCC2 | inconclusive: 28.2 µM [inhibitor, single point] | 
8 | CCn1c(=O)c2c(cc(C)n2C)n(CC(=O)Nc2c(C)cccc2C)c1=O | inconclusive: 22.4 µM [inhibitor, partial curve, poor fit] | 
9 | O=C(NCC(F)(F)F)C1CCCN1c1nc2ncccc2o1 (centres undefined) |  | inactive: 11.3% [at 87.6 µM]
10 | O=C1CCCN1CCCN1C(=O)[C@H]2CN(Cc3ccc(Cl)cc3)C[C@H]2C1=O | inconclusive: 3.98 µM [inhibitor, single point] | 
11 | Cc1cc(NC(=O)Cn2c(=O)nc(-c3ccccc3F)c3cc(Cl)ccc32)ccc1Br |  | inactive: 17.4%
12 | Cc1ccc(-c2cn3c(n2)sc2cc(C(=O)NCCCN4CCCCC4)ccc23)cc1 | inconclusive: 39.8 µM [inhibitor, single point] | 
13 | CCOC(=O)c1ccc(NC(=O)CC2C(=O)N(c3cccc(OC)c3)C(=O)N2C2CCCCC2)cc1 (centres undefined) | inconclusive: 0.794 µM [inhibitor, full curve, poor fit] | 
14 | CCN1c2cc(C(=O)NCc3ccccc3F)ccc2C(=O)N2CCCCCC21 (centres undefined) | inconclusive: 8.91 µM [inhibitor, single point] | 
15 | CN1CCN(C(=O)CC[C@H]2CNC(=O)[C@@H]3[C@@H](CCN3Cc3ncc[nH]3)N2C)CC1 |  | inactive: 3.72% [at 87.6 µM]
16 | COc1ccc(-c2cc3c(=O)n(CCNC(=O)c4ccco4)ccn3n2)cc1 |  | inactive: 26.4%
17 | Cn1cccc1C(=O)N1CC(CO)C2(CCNCC2)C1 (centres undefined) | inconclusive: 35.5 µM [inhibitor, single point] | 
18 | O=C(Cc1ccccc1Cl)N1CCC(Cc2nc(-c3ccc(F)cc3)no2)CC1 | inconclusive: 31.6 µM [inhibitor, single point] | 
19 | O=c1c2cccnc2n(Cc2ccccc2F)c(=O)n1Cc1ccccc1Cl | inconclusive: 12.6 µM [inhibitor, partial curve, poor fit] | 
20 | CCOC(=O)c1c(C)[nH]c(C)c1S(=O)(=O)N1CCC(C(=O)N2CCN(c3ccc(Cl)cc3)CC2)CC1 | inconclusive: 44.7 µM [inhibitor, single point] | 

Row | Compound | Potency | activity change, negative = inhibition
21 | COc1ccc(-n2c(=O)c3c4c(sc3n(Cc3ccccc3)c2=O)CN(C(C)=O)CC4)cc1OC | inconclusive: 39.8 µM [inhibitor, partial curve, poor fit] | 
22 | CC1(C(=O)NCCc2ccccn2)CCc2cnc(NCc3ccccc3)nc21 (centres undefined) | inconclusive: 15.8 µM [inhibitor, partial curve, poor fit] | 
23 | CC1=C(c2ccc(C)c(C)c2)S(=O)(=O)N=C1N1CCC(C(=O)NCCc2ccc(Cl)cc2)CC1 | inconclusive: 14.1 µM [inhibitor, partial curve, poor fit] | 
24 | COc1cccc2c1Oc1ncccc1N(C(=O)CCC(=O)NCc1ccc(N(C)C)cc1)C2 | inconclusive: 7.08 µM [inhibitor, single point] | 
25 | COc1cccc(NC(=O)c2oc3ccccc3c2NC(=O)c2ccc(C(F)(F)F)cc2)c1 | inconclusive: 0.158 µM [inhibitor, partial curve, poor fit] | 
26 | Nc1ncnc2c1c(-c1cccc(OCc3ccccc3)c1)cn2C1CC(CN2CCC2)C1 (centres undefined) | inconclusive: 24.1 µM [inhibitor, single point] | 
27 | O=C(N[C@@H](Cn1cc(Cl)c(=O)[nH]c1=O)C(=O)O)C1CC1 | inconclusive: 11.2 µM [inhibitor, partial curve, poor fit] | 
28 | COc1ccccc1C1NC(=O)N(CCC(C)C)C2=C1C(=O)OC2 (centres undefined) | inconclusive: 5.01 µM [inhibitor, partial curve] | 
29 | CCCCN1CC(c2nc3ccccc3n2CCCCOc2ccc(C)cc2C)CC1=O (centres undefined) | inconclusive: 39.8 µM [inhibitor, single point] | 
30 | Cc1cc(S(=O)(=O)N2CCC(n3cnnc3-c3ccccc3)CC2)ccc1F | inconclusive: 39.8 µM [inhibitor, single point] | 
31 | CCCCn1c(=O)c(C(=O)NCc2ccc(C(F)(F)F)cc2)nc2cccnc21 |  | inactive: -0.708%
32 | Cc1cc(C(F)(F)F)nc(CCNC(=O)c2cn(CCCc3ccccc3)nn2)n1 | inconclusive: 2.82 µM [inhibitor, full curve] | 
33 | Cc1ccc(NC(=O)c2nc3sccn3c2-c2ccncc2)cc1 |  | inactive: 20.4% [at 87.6 µM]
34 | COc1ccccc1Nc1ccnc(N2CCCC(C(=O)NCCc3ccccc3F)C2)n1 (centres undefined) | inconclusive: 2 µM [inhibitor, partial curve, poor fit] | 
35 | O=C(CC1CCOCC1)NCc1ccc(N2CCOCC2)cc1 | inconclusive: 39.8 µM [inhibitor, single point] | 
36 | COC(=O)CNC(=O)C1CN(c2ccc(F)cc2)C(=O)N1 (centres undefined) | inconclusive: 28.2 µM [inhibitor, single point] | 
37 | CC1=C[C@@H](CN)[C@H](C(C)C)C[C@H]1Cc1nc2ccc(F)cc2[nH]1 |  | inactive: -28.4% [at 87.6 µM]
38 | CC(=O)N(C1CCOCC1)C1CCN(S(=O)(=O)c2ccc(F)c(F)c2)CC1 | inconclusive: 7.08 µM [inhibitor, single point] | 
39 | COCCN1CCCCCC(O)c2cc(C(=O)N3CCN(c4ccc(F)cc4)CC3)ccc21 (centres undefined) | inconclusive: 25.1 µM [inhibitor, single point] | 
40 | CC1=C[C@@H](CN(CC2CC2)CC2CC2)[C@H](C(C)C)C[C@H]1Cc1nc2c(C)cccc2[nH]1 | inconclusive: 31.6 µM [inhibitor, single point] | 

Row | Compound | Potency | activity change, negative = inhibition
41 | Cc1cc(OCC(=O)O)c(C)c2c1CC[C@@H]([C@H](C)C(=O)NCc1ccccc1)C2 |  | inactive: 12% [at 87.6 µM]
42 | O=S(=O)(c1ccc2c(c1)OCCO2)N1CCC(Cc2nc(-c3cccnc3)n[nH]2)C1 (centres undefined) |  | inactive: 10.1%
43 | O=C(NC1CCCCC1)c1ccc(CSc2nc3ccncc3n2Cc2ccc(F)cc2)cc1 | inconclusive: 39.8 µM [inhibitor, single point] | 
44 | COc1cccc(C(=O)NC2CCCN(c3cc(-c4ccc(F)cc4)[nH]n3)C2)c1 (centres undefined) |  | inactive: -15.4%
45 | COc1ccc(CC(=O)NC2CCN(c3ccnc4ccnn34)C2)cc1 (centres undefined) | inconclusive: 3.98 µM [inhibitor, full curve, poor fit] | 
46 | CCOC(=O)C[C@@H]1C[C@@H](C(C)C)[C@H](CNC(=O)c2ccc(C#N)cc2)C=C1C | inconclusive: 56.2 µM [inhibitor, single point] | 
47 | COc1ccc(C2C(C(=O)Nc3ccc(C)cc3C)=C(C)Nc3nc(SCc4cccc(C)c4)nn32)c(OC)c1 (centres undefined) | inconclusive: 1 µM [inhibitor, partial curve, poor fit] | 
48 | O=C(NCC1CCCCC1)c1nc2sccn2c1-c1ccc(C(F)(F)F)cc1 | inconclusive: 22.4 µM [inhibitor, single point] | 
49 | Cc1c(Cl)cccc1Nc1nn2c(=O)c3ccc(C(=O)NCCC4=CCCCC4)cc3nc2s1 | inconclusive: 7.08 µM [inhibitor, partial curve, poor fit] | 
50 | N#Cc1cccnc1-c1cccc(C(=O)NCCNC(=O)c2ccccc2F)c1 | inconclusive: 3.16 µM [inhibitor, full curve] | 
51 | CC(C)CCNC(=O)c1cnc2n1CCN(CCCc1ccccc1)CC2 | inconclusive: 15.8 µM [inhibitor, partial curve, poor fit] | 
52 | CCOc1ccc(NC(=O)Cn2c(=O)n(CCCCC(=O)NCc3ccc4c(c3)OCO4)c(=O)c3ccccc32)cc1 | inconclusive: 11.2 µM [inhibitor, partial curve, poor fit] | 
53 | O=C(Nc1ccccc1)O[C@@H]1CO[C@H]2[C@@H]1OC[C@@H]2n1nnnc1-c1ccc2c(c1)OCCO2 |  | inactive: 53%
54 | O=C(NCc1ccc(C(F)(F)F)cc1)c1nc2cccnc2n(Cc2ccccc2)c1=O |  | inactive: 4.02%
55 | Cc1nn2c(c1-c1ccccc1Oc1ccccc1)N(C(=O)c1ccccc1)CCC2 | inconclusive: 15.8 µM [inhibitor, partial curve, poor fit] | 
56 | Cc1nc2n(c1C(=O)Nc1cc(-c3ccc(F)cc3)[nH]n1)CCC(Nc1ccc(F)cc1)C2 (centres undefined) | inconclusive: 10 µM [inhibitor, partial curve, poor fit] | 
57 | CCOc1ccc(C(=O)NC2CCN(c3cc(-c4ccc(F)cc4)[nH]n3)CC2)cc1 | inconclusive: 39.8 µM [inhibitor, partial curve, poor fit] | 
58 | O=C(Cn1c(=O)n2nc(-c3cccc(F)c3)nc2c2ccccc21)N1CCN(c2ccc(F)cc2)CC1 | inconclusive: 3.55 µM [inhibitor, partial curve, poor fit] | 
59 | O=C(CSc1nccn1Cc1ccco1)Nc1cc(C(F)(F)F)ccc1Cl | inconclusive: 39.8 µM [inhibitor, single point] | 
